From publication PMC4336329 (PLoS ONE, 2015)
Hit rate of the full screen: of about 310,000 compounds, about 2,200 (0.71%) showed an effect of 50% or more. Effects have a minus sign here. The list shows a part of the results.

What follows are molecules tested against human ether-à-go-go-related gene (hERG) potassium channel (human, UniProt Q12809) (assay: primary screen, population patch clamp on CHO cells stably expressing hERG).
human ether-à-go-go-related gene (hERG) potassium channel, sequence (Q12809 whole entry, looked up): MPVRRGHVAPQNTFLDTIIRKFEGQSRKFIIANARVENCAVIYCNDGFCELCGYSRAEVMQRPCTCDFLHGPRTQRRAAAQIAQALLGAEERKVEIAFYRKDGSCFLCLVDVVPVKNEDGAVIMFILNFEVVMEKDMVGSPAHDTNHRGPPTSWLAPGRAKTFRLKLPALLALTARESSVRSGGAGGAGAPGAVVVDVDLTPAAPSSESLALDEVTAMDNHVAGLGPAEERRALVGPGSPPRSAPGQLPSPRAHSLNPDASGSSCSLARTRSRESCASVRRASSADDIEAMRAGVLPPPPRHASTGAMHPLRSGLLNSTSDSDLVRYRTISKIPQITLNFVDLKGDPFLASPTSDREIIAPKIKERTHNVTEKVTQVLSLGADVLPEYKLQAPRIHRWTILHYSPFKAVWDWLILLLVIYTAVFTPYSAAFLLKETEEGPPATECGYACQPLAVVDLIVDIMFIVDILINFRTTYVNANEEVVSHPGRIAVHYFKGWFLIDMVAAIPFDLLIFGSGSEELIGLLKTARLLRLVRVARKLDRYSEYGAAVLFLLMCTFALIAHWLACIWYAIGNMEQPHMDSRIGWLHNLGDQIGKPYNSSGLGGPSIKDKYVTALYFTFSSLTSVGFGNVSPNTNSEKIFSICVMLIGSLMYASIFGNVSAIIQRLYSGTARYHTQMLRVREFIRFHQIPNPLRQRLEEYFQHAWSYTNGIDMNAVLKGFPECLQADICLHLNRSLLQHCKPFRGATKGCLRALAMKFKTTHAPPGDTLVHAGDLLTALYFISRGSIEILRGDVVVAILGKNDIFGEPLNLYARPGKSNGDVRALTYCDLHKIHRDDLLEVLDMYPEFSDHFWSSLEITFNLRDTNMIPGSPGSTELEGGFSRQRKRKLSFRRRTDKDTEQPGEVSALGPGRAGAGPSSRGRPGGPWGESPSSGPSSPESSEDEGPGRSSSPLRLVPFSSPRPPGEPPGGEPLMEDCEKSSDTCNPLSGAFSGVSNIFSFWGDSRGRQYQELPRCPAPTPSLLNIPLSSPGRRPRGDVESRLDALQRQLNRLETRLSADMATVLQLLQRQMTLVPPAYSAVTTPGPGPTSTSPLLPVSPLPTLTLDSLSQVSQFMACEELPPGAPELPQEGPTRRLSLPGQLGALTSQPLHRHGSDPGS

Compared with `COc1cccc(NC(=O)Nc2ccncc2)c1`, `COc1ccc(CC(=O)Nc2nc(-c3cccnc3)cs2)cc1` is lower in “hERG current change (%, negative = inhibition) at 1uM” value: 13.7% for the first, 8.63% for the second.

Going from `CCCSC1=C(C#N)C(c2cc(OC)ccc2OC)CC(=O)N1` (centres unmarked) to `CCN(CC)c1ccc(C2CC(=O)Nc3cc(OC)c(OC)cc32)cc1` (centres unmarked), the “hERG current change (%, negative = inhibition) at 1uM” value falls from 15.3% to 13%.

First: CN(C)c1ccc(N2C(=O)CC(c3ccccc3)CC2=O)cc1
Second: CCCOc1ccc(N2C(=O)CC(N3CC=C(c4ccccc4)CC3)C2=O)cc1 (centres unmarked)
The “hERG current change (%, negative = inhibition) at 1uM” value of the first is higher: 9.47% for the first, 8.61% for the second.

Going from `Cc1nnc2n(-c3ccccc3)c(=O)c3ccccc3n12` to `Cc1nnc(SCc2ccccc2C#N)n1-c1ccccc1`, the “hERG current change (%, negative = inhibition) at 1uM” value falls from 14.1% to 4.48%.

Going from `Cc1ccc(-n2c(-c3ccc(Br)cc3)c[n+]3c2CCc2ccc4cccnc4c2-3)cc1.[Br-]` to `Cc1c(C(=S)Nc2ccccc2)cnn1-c1ccccc1`, the “hERG current change (%, negative = inhibition) at 1uM” value rises from -86.6% to 7.57%.

Going from `Cc1cccc(NS(=O)(=O)c2nnc(NC(=O)c3cccc(C)c3)s2)c1` to `CCCCNS(=O)(=O)c1ccc2nc(-c3cccnc3)cc(C(=O)NC(C)C)c2c1`, the “hERG current change (%, negative = inhibition) at 1uM” value rises from 10.1% to 11.9%.

First: Cc1cc(OCC(=O)OCC(=O)NCc2ccc3c(c2)OCO3)ccc1Cl
Second: Cn1cc(CNC(=O)C2CCC(=O)N(Cc3ccc(Cl)cc3)C2)cn1 (centres unmarked)
The “hERG current change (%, negative = inhibition) at 1uM” value of the first is higher: 22.1% for the first, 8.02% for the second.

Compared with `CCC(=O)N1CCN(c2ccccc2NC(=O)Cc2ccc(Cl)cc2)CC1`, `O=C(CCc1ccccc1)N1C[C@H]2C[C@@H](C1)c1cccc(=O)n1C2` is higher in “hERG current change (%, negative = inhibition) at 1uM” value: -41.5% for the first, 9.87% for the second.

Compared with `O=CN1CCN(C2CC(=O)N(c3ccc(Br)cc3)C2=O)CC1` (centres unmarked), `CCC(=O)Nc1ccc(N2CCC(C)CC2)cc1` is higher in “hERG current change (%, negative = inhibition) at 1uM” value: 6.78% for the first, 18% for the second.

First: N#Cc1c(N2CCOCC2)nc(-c2ccco2)c2c1CCCC2
Second: Clc1ccc2c(c1)nc1n2CCCC1
The “hERG current change (%, negative = inhibition) at 1uM” value of the first is lower: 8.37% for the first, 10.9% for the second.

Compared with `Cl.O=c1cc(-c2ccccc2)[nH]n1-c1nc2ccccc2[nH]1`, `CCc1ccc(OC)c(S(=O)(=O)NCCOc2ccccc2)c1` is higher in “hERG current change (%, negative = inhibition) at 1uM” value: 2.47% for the first, 10.9% for the second.

First: Cc1occc1-c1nnc(SCC(=O)N(C)c2ccccc2)n1C
Second: CCOc1cc(/C=N/Nc2nn3cnnc3c3ccccc23)ccc1O
The “hERG current change (%, negative = inhibition) at 1uM” value of the first is higher: 2.97% for the first, -5.29% for the second.

Going from `COc1ccccc1/C=N/NC(=O)CO` to `CCN1CC(CN(C)Cc2nc(-c3ccco3)oc2C)CC1=O` (centres unmarked), the “hERG current change (%, negative = inhibition) at 1uM” value falls from 13.7% to 9.66%.
